# Data taken from the supplement of paper PMC3334620.
# Whole data set: some 33,000 sequences, median “E-score (-0.5 to 0.5)” near -0.016, cut for the highest 2% near 0.32. Some of the results follow.
# Target: T1, Stp1 (UniProt B3LFK1)
# T1 sequence: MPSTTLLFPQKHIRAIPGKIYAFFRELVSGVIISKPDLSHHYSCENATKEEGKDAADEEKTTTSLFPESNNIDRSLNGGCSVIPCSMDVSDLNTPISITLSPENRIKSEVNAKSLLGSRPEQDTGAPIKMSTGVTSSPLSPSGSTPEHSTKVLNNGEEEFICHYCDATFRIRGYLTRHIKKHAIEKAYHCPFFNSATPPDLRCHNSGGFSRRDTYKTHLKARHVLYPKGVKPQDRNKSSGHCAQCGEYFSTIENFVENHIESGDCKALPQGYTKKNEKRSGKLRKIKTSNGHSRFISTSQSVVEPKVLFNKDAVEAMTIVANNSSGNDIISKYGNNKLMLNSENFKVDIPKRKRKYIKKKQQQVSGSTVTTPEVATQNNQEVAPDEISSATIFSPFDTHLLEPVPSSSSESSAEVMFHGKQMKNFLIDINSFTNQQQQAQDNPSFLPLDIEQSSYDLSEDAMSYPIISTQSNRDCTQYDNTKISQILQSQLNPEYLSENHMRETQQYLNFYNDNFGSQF
# Experiment: PBM E-score (8-mer binding enrichment) (E-score (-0.5 to 0.5)); higher = stronger / more preferred TF binding; most listed sequences are background and not binding sites
# Conditions: protein concentration: 200 nM; construct: GST-full length
# In short: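 Yeast transcription factors carrying a GST tag, as full-length proteins or DNA-binding domains, were produced by PURExpress in vitro transcription/translation. About 100-200 nM protein was applied to universal all-10-mer Agilent arrays, double-stranded by primer extension on fresh or once-stripped slides. Bound protein was detected with fluorescent anti-GST, and scans were normalised with masliner. The Universal PBM Analysis Suite gave each ungapped eight-base word, pooled with its reverse complement, an E-score, a modified Wilcoxon-Mann-Whitney statistic.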
row,Sequence,PBM E-score
1,GGAAGTCA,-0.135
2,AGTGCCTG,-0.0958
3,GCCCCCTA,-0.198
4,AGATCGAG,-0.197
5,AGGCATGG,0.134
6,ACCCATAA,0.0305
7,GCTGCCCC,-0.0352
8,CAGTTAAC,0.072
9,CTTCCAAG,-0.0826
10,GTTGCATA,0.0182
11,ATCTCGCG,0.145
12,GAGCACAC,-0.317
13,CAACTGGG,-0.215
14,CGAATCTA,0.0157
15,GATCCCCA,0.0723
16,TGGCAGAA,0.221
17,CCCTGTTC,-0.106
18,CCAATCGA,-0.0389
19,GATACTTA,-0.193
20,CACTCAGG,-0.109
21,AACCCACC,-0.0858
22,AACATAAG,0.186
23,GACACCGA,-0.156
24,AGCAGCTA,0.0736
25,ACTGTTTA,-0.00958

row,Sequence,PBM E-score
1,ATCTACTA,0.136
2,AGTCTCAG,-0.0507
3,ATGTTAAC,0.0197
4,AAGCCATG,-0.0501
5,ACCGTGGA,0.0243
6,CAGTAAGA,-0.0015
7,CCGACGAA,0.0519
8,ACTCACGG,0.108
9,ACGTCTAG,0.00558
10,CCTGGCTC,-0.0865
11,GCCTAGGC,0.014
12,AGTGACCG,-0.127
13,GCCTGACC,-0.0717
14,ACCCCCTG,-0.3
15,AGGTGAGC,-0.153
16,AGTGGTGC,0.0413
17,ACCACGCG,0.122
18,ATAGTGGG,-0.133
19,ACTAAACA,0.0434
20,AACCAACA,0.158
21,CGTTTATC,0.121
22,ATCATCCC,-0.156
23,CGTCATTA,-0.0458
24,GTCAACCA,-0.14
25,ATGACGAC,-0.131

row,Sequence,PBM E-score
1,GTTAGGGA,-0.178
2,CGTGGCAG,0.239
3,CGCGTGGA,-0.0367
4,GTACTTAA,-0.119
5,CACAGGTC,-0.22
6,ATAGGCCG,-0.136
7,ATACAAAC,0.144
8,CACGTTCG,-0.00629
9,CTAGGAGA,-0.102
10,AACCGCGT,0.174
11,TTAATAAA,0.204
12,TGACTCCA,-0.321
13,CACGTAGC,-0.158
14,CATGAACC,-0.0272
15,GAATTGGA,0.0415
16,CGTTGCCC,0.0835
17,CCCCTAAG,-0.284
18,CCGATACG,-0.0133
19,ACTCCTGG,-0.188
20,CCGTCAGG,-0.151
21,AAGACTTC,-0.157
22,GACCATGC,0.018
23,GTAATGGA,0.108
24,GAGACCGA,-0.217
25,CAACGTCA,-0.0755

row,Sequence,PBM E-score
1,TCCAAAAA,0.05
2,AGCCTGCC,-0.163
3,GGCGCCGA,0.421
4,AACGAACA,0.19
5,ACCAGACT,-0.238
6,ACAATTAT,0.199
7,ATTTGTGG,0.182
8,ACGAAGTG,0.0266
9,ATCCCAGG,-0.238
10,CCAGTTAC,-0.12
11,TGGCAAAA,0.292
12,CCTAAAAA,0.117
13,CTCGTTCA,-0.0156
14,ATAAGCCG,0.0578
15,CTTAAATC,0.0764
16,TCAAGTAA,0.0823
17,GCGTTCAA,0.112
18,CAGGAGAC,-0.175
19,GCATCCTA,0.0928
20,ACATAGCG,0.0669
21,CTTTGCAC,0.0969
22,AAGAGGTC,-0.213
23,GCCGTTAA,0.168
24,ACAGCCTA,0.0411
25,ATCAACTG,0.0295

row,Sequence,PBM E-score
1,AGGTCATC,-0.191
2,GCCCCAAC,-0.112
3,GTTCACTA,0.00226
4,CAATTGCG,0.1
5,CCCGTCGG,0.103
6,AATGTTCC,-0.155
7,ACCGCACG,0.28
8,ACTCGCAC,-0.0707
9,ATATAGTG,0.151
10,AGTCCGTA,-0.0203
11,GAAGAGCC,0.281
12,CCCCTATC,-0.302
13,CAATGGGA,-0.0885
14,GTTATTGA,0.00688
15,ATGGTATC,0.00249
16,ATGGTGTC,-0.00706
17,ACGATTCC,-0.0968
18,CCTTAGGC,-0.135
19,AGTGTGCG,0.0273
20,AGTATCTA,-0.005
21,ACCCTGAC,-0.0969
22,ATTCGTCA,0.134
23,GGATCTGA,0.0425
24,ATGGGCCG,0.123
25,TTAATTAA,-0.106

row,Sequence,PBM E-score
1,GTCACTTA,0.0391
2,GACGCATC,-0.18
3,CCGCTGTA,0.044
4,CGCCCACG,0.0827
5,CAATCGCA,0.154
6,ACGACTCA,-0.215
7,TCCCCGAA,-0.182
8,GGTCCTAA,-0.0551
9,GGGAAGTA,-0.102
10,CGCCTAGA,-0.0337
11,CATAGGCA,-0.0351
12,TCCCTTAA,-0.192
13,TTCTACAA,0.161
14,GTTGCAGA,0.0673
15,CCGGGTCC,-0.295
16,TAATACAA,0.0682
17,GATTATTA,-0.00214
18,AATTTAGA,0.0742
19,AAGATTAT,-0.0261
20,GGTGGCTA,0.0168
21,TCCGCCCA,-0.18
22,CCAACCGC,0.0116
23,AAATCCCA,-0.017
24,AAATATGC,0.176
25,CCGTATTA,0.27

row,Sequence,PBM E-score
1,GAATGGAC,-0.115
2,TAGGTATA,0.062
3,CTTTAGTA,-0.0729
4,AGCTGTGA,-0.132
5,AAATCCAG,-0.00717
6,GTTCGTAA,-0.00745
7,GTTGTCCA,-0.112
8,CAATAGTA,0.139
9,AAGTACTC,-0.141
10,AGAATGAT,0.0859
11,AAGGTCAA,-0.24
12,AACTCCAC,-0.0546
13,GCAGAGCA,-0.0964
14,CTTGCGAC,-0.0932
15,ATAGGGTA,-0.189
16,GAGTCCTA,-0.21
17,CTAGGATC,-0.106
18,ATTTGGAA,0.0474
19,TAATTCCA,0.0311
20,GTGCAGAA,0.141
21,AGATTAGC,-0.0227
22,AGAGACAG,-0.168
23,GACCAGGC,-0.211
24,ACGCTTAT,-0.056
25,GCGCCGGA,0.171

row,Sequence,PBM E-score
1,CCGGCAGA,-0.0739
2,CGGCGATC,0.373
3,CTCACATA,0.0137
4,TAGTGGAA,0.00152
5,TCGGTGCA,-0.0749
6,CATGCATA,0.0666
7,TGAAGGCA,0.0723
8,GCTTAACA,-0.0243
9,ATCGAGCC,0.173
10,CGGCCCCA,0.0342
11,GAACACAC,0.00772
12,AACCGGGA,-0.264
13,CAGCAGGA,-0.195
14,AAGGGAAG,0.00755
15,AGAATACG,0.0657
16,CTTGGTCC,-0.125
17,CACAACAG,-0.226
18,AAAGGTTC,-0.0601
19,TCAGTGCA,-0.178
20,CAAATCCG,0.00632
21,CAATGGTC,-0.0151
22,AACCCAGT,-0.11
23,GGGGGACC,-0.298
24,CGATCTAA,0.00519
25,AAAGCATT,0.0917

row,Sequence,PBM E-score
1,CCATGCAA,0.146
2,ACTGGCTG,-0.0827
3,GCGACTAC,-0.132
4,ACAACTCC,0.0899
5,AAGGTGTA,-0.18
6,CACTGCCA,0.0847
7,TAAAACTA,0.128
8,AATTAACA,0.0673
9,TGGCGACA,0.0759
10,ATCCGGGG,-0.0877
11,GTCGAAAA,0.0966
12,ATAATGGC,0.183
13,CAGTCCCA,-0.293
14,AATGCTCC,-0.148
15,CAACCTAG,-0.172
16,AGCCTGGG,-0.271
17,CTATACGC,0.00659
18,CTGCTTCC,-0.281
19,AGAAGTTC,0.0255
